# In the supplement of paper PMC11417369:
# The other results are listed elsewhere or left out.
# Tested on: PfAP2-HC AP2 domain (GST-tagged)
# Assay: gcPBM binding intensity (ln(normalized median fluorescence intensity)); higher = stronger DNA binding
# Procedure, shortened: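 An Agilent 4 × 180k array carrying primer-extended double-stranded 36-bp intergenic genomic probes and negative controls received GST-tagged P. falciparum DNA-binding domains expressed in E. coli, about 25 μg on average, for 1 h. The binding buffer contained 1× PBS, 1% milk, 0.2 mg/ml BSA, 0.5% salmon testes DNA and 0.03% Triton X-100. Binding intensity is the top Masliner-normalised natural-log median intensity across replicate spots of either probe orientation, read after Alexa488 anti-GST antibody staining and a 488 nm scan.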
row,Sequence,gcPBM binding intensity (ln)
1,TATAATAATATTTATTGTACAATTAGTTTAATTCAT [XGTACX_site272],9.35
2,TTTATTATATAAACATGTACACAATTTGGTATATTC [XGTACX_site3112],9.66
3,TATATGCCTATAAGAAGTACTGTGTAATGTAATATA [XGTACX_site8089],9.71
4,TAAACATAAATATGCACACATATACATATATTCATA [CACACA_site2667],9.83
5,AAGAAAAATATATTTATATATATATATATTAAATAT [TGCATGCA_negctrl_site500],9.48
6,CTACATAATAAAAAAAGTACATTCTAATAAATTGAC [XGTACX_site4504],9.68
7,ACTAATAATTTGTCGGTGCATAAAATTATTTTTATT [GTGCAC_site9840],9.74
8,AAATTATGCATCGAGGTGCGTCTTAAAATATAGTGG,9.65
9,ATATAAATTCAAATTACACACATTTATTTTTTTTAC [CACACA_site53],9.82
10,ATGATAAAATTATGTAGTACATATTTGAATGTAAAT [XGTACX_site688],9.85
11,ATATATGTAACATATTGTACATATATGTATGTATGT [XGTACX_site3281],9.96
12,ATTCATAAAAGTTGTACATGCAATTTTTTTTTTTTT [TGCATGCA_site270],9.48
13,ATTTTGTTATGAAACACACACATATATATATATATA [CACACA_site3650],10
14,TAATTTCTTATGTAGTGTACAAATAATATATGATAT [XGTACX_site597],9.43
15,AATATCTGTATATCCACACACATATATATATATATA [CACACA_site4987],10.1
16,TAATCGGTAATATTAACACACACATTTATATATATT [CACACA_site8274],10.4
17,GTATTAATAAAAATACGTACTTATTATTTATAATAA [XGTACX_site7672],9.54
18,ATTATTCATATAACACGTACAAAACGAAAAACAAAT [XGTACX_site3873],9.78
19,AAAAGGAGAAATATTGCACACGTGCAAAATGGTATG [CACACA_site4300],9.98

row,Sequence,gcPBM binding intensity (ln)
1,AATATCACCACATTGTTACTATAATATATAAAAAAG [XGTACX_negctrl_site384],9.64
2,TTCTGTGTCTAAAAATGTACGGGAATATATAAAAGT [XGTACX_site2090],9.56
3,TGACTTTGTTGAATTTGTCCTCTTAACTCATAATAT [GTGCAC_negctrl_site217],9.55
4,ACATAATATATATATTAACACACATCCTTTTATGTA [CACACA_site8317],9.86
5,TTTTTTTTTTTTAAATGTACTTATCAACTTTTATAT [XGTACX_site4641],9.48
6,ACTTATATTATAAATTGTACAAATATTATATTTGGT [XGTACX_site1424],9.7
7,TTATTTTGTTTATTATGTACACAAAGACATAATAAT [XGTACX_site5648],9.53
8,CACTTACATAATTATTGTACAGATATTATCAAATAA [XGTACX_site567],9.52
9,AATAAAATAATCCAAGTGCATATGTAAAAATACATT [GTGCAC_site9576],9.81
10,AATATATGTAAATGGACACACACATATATATATATA [CACACA_site9220],9.95
11,AAAAAAAAAAGACACACACACACACGCATATACATA [CACACA_site7289],10.7
12,ACGGACAATACGGAAACACACAAGTTATTTTATCAT [CACACA_site7310],9.94
13,TACGTAAAAATAATACGTACATATATTTATAGAAAA [XGTACX_site4959],9.71
14,GAAATACCGGAAAGCAAACACACATTTTAAAACCAT [CACACA_site3861],9.89
15,ATATTTTTTGGAAAGTGTACAATATTATATATTAAA [XGTACX_site2163],9.45
16,AACCATGTTAACAATGCATGCATCACTATATAAACG [TGCATGCA_site421],9.66
17,ATACATATATATAGGTGTACATATAATATATATATA [XGTACX_site2228],9.72
18,TTTAATTTTACATGAGAAACATATTACAATAAAATA [GTGCAC_negctrl_site606],9.13
19,TCAAGTATTAAAATGGGTACATAAATATGTGTATAT [XGTACX_site5884],9.61

row,Sequence,gcPBM binding intensity (ln)
1,CATATAAAAAAATAGACACACATTTTATATAATACG [CACACA_site1896],10
2,TATTTTTCTTTTTTTTTTTTTTTTATATTATACGTG [XGTACX_negctrl_site363],9.53
3,CTTTTTAAATTAAAATGTACAGAAAAATATTATTAT [XGTACX_site8760],9.13
4,ATCATATGTATGCATACACACAAAAAGTTATTTATA [CACACA_site6325],9.78
5,GAAAATCAGTTAAACACACACATAAAAAAAAAAAAA [CACACA_site2875],10.6
6,ATATATACTATATTTTAACACACAAAAAAAAAAAAT [CACACA_site8277],9.78
7,CTCAATATTATTACTACACACAAATTAATATTTTCC [CACACA_site55],9.82
8,CTTTTTTCAAGACACACACACAAGAAAATATAAATA [CACACA_site7455],10.1
9,TGTTAATTGAATGCAATCTGAATTTTTTTACATAAT [CACACA_negctrl_site1002],9.56
10,CACCCACCCAGACACACACACACAAAAAAAAAAAGA [CACACA_site499],11.2
11,TATTTGTAAATCGATACACACATATATCTTAATATA [CACACA_site4273],9.68
12,TGGATAATGAATGATGCACACTAAAAATATTCTACA [CACACA_site5912],9.78
13,CGGCACGTGATATATACACACATATAGATATATACA [CACACA_site6408],9.79
14,ATATATATAACATATACACACGTTCATATATATATA [CACACA_site4416],9.88
15,TAATTTTTATTTTATTTTATTTTTTTTTTTTTTATT [CACACA_negctrl_site1671],9.49
16,TTACAAGTAAAAGGTACACACATTATATATACAAAT [CACACA_site8290],10
17,TCACATGGAAAAAAGTGTACATAATTATGTATAAAT [XGTACX_site2827],9.8
18,TATAAAAAATAAAAAGTTTAATGAATATTTCTTTTA [TGCATGCA_negctrl_site379],9.41
